Measured values taken from the supplement of paper PMC7826260.
The other results are listed elsewhere or left out. The data describe in vitro nicking of single-stranded DNA by Rep domains (1 h at 37 °C, 3 µM enzyme); the outer parts of the 90-letter strands are left off. A value is the log2 ratio of uncut reads to the pool without enzyme; more negative means more cut, near 0 not cut, and no call is made. Reads are scaled to the total; where an enzyme cuts many sequences, the uncut ones exceed 0.

Experiments:
Assay in all cases: uncleaved DNA left, log2 of reads against the no-enzyme library (log2 ratio); higher = less cleavage (more negative = more Rep cleavage of the k-mer); sequences stand for … in CTCGTCCG…ACCGGAGA
[1] = system: T1, Rep nickase domain of Muscovy duck circovirus
T1 sequence (protein, residues 1-111, tag omitted): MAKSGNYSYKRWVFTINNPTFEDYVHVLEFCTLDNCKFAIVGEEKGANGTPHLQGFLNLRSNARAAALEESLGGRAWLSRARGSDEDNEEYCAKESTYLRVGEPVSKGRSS
Experimental: (§1)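 A pool of 90-nt single-stranded DNAs with seven random bases just before the constant AC of the nick site (name = the seven bases) was cut by 3 µM recombinant His6-SUMO-tagged Rep nickase domain (300 nM DNA, 50 mM HEPES pH 8.0, 50 mM NaCl, 1 mM MnCl2, 1 h, 37 °C, three replicates). Uncut DNA was amplified and sequenced.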

[2] = system: T2, Rep nickase domain of banana bunchy top virus
T2 sequence (protein, residues 1-94, tag omitted): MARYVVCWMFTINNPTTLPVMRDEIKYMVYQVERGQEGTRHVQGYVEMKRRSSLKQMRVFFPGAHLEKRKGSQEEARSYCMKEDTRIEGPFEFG
Experimental: as §1

[3] = system: T3, Rep nickase domain of cabbage leaf curl virus
T3 sequence (protein, residues 1-116, tag omitted): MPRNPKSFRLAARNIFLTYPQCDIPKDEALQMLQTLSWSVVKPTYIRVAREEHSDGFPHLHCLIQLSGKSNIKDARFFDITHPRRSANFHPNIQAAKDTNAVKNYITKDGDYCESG
Experimental: as §1

[4] = system: T4, Rep nickase domain of chickpea chlorotic dwarf virus
T4 sequence (protein, residues 1-124, tag omitted): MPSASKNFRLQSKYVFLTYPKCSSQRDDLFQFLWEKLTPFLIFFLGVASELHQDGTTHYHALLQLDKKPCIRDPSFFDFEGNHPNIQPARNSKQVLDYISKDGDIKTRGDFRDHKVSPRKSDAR
Experimental: as §1

[5] = system: T5, Rep nickase domain of faba bean necrotic yellows virus
T5 sequence (protein, residues 1-98, tag omitted): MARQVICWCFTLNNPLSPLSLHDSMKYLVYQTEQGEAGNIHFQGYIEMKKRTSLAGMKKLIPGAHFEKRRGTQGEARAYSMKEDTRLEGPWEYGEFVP
Experimental: as §1

[6] = system: T6, Rep nickase domain of maize striate mosaic virus
T6 sequence (protein, residues 1-117, tag omitted): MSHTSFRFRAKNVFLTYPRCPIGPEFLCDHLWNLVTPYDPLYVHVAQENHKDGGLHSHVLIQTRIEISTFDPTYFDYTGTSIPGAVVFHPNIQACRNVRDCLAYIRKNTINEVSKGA
Experimental: as §1

[7] = system: T7, Rep nickase domain of porcine circovirus 2
T7 sequence (protein, residues 2-116, tag omitted): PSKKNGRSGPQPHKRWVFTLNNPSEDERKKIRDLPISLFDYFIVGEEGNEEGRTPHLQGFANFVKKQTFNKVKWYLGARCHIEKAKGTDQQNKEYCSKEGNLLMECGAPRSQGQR
Experimental: as §1

[8] = system: T8, Rep nickase domain of tomato yellow leaf curl virus
T8 sequence (protein, residues 1-136, tag omitted): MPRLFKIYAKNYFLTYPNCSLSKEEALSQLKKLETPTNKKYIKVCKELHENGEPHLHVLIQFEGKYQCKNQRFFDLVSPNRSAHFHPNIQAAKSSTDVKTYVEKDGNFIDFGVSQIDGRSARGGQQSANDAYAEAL
Experimental: as §1

[9] = system: T9, Rep nickase domain of wheat dwarf virus
T9 sequence (protein, residues 1-137, tag omitted): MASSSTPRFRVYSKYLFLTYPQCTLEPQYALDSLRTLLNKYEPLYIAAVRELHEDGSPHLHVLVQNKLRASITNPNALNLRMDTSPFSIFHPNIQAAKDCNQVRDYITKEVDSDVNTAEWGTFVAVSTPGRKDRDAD
Experimental: as §1

| Sequence | uncleaved DNA left (log2) [1] | uncleaved DNA left (log2) [2] | uncleaved DNA left (log2) [3] | uncleaved DNA left (log2) [4] | uncleaved DNA left (log2) [5] | uncleaved DNA left (log2) [6] | uncleaved DNA left (log2) [7] | uncleaved DNA left (log2) [8] | uncleaved DNA left (log2) [9] |
| --- | --- | --- | --- | --- | --- | --- | --- | --- | --- |
| CCCACAT | 0.0912 | -0.0133 | 0.36 | -0.182 | 0.011 | -0.00978 | 0.0086 | 0.0256 | 0.0738 |
| ATCGTTG | 0.0194 | -0.0117 | -0.324 | -0.368 | -0.0943 | -1.01 | 0.0886 | 0.0254 | -0.108 |
| CCATTAA | -0.144 | -0.178 | -0.492 | -0.479 | -0.146 | -1.25 | -0.0298 | -0.215 | -0.221 |
| CCCCTCG | -0.252 | -0.141 | -0.749 | -0.0909 | -0.234 | -0.784 | -0.191 | -0.183 | -0.0469 |
| TATCTTT | -0.656 | -0.259 | -1.56 | -2.75 | 0.082 | -0.523 | -2.98 | 0.059 | -0.276 |
| CCATATC | -0.0771 | -0.0138 | -0.203 | -0.292 | -0.148 | -0.953 | 0.0107 | -0.0408 | -0.0224 |
| CGCTTTT | -2.4 | -0.0499 | -0.126 | -1.84 | 0.0783 | -0.4 | -3.02 | 0.173 | 0.0719 |
| GCGGCAG | 0.0142 | 0.0163 | 0.442 | 1.16 | 0.0107 | 1.5 | 0.151 | -0.0698 | 0.103 |
| AAACACA | -0.0544 | -0.16 | -0.38 | -2.43 | -0.0369 | -0.769 | -0.119 | -0.122 | -0.1 |
| TTTACCG | -0.0629 | 0.00891 | -0.682 | -0.209 | 0.0175 | -0.179 | -0.102 | -0.0251 | -0.119 |
| CGGAGCA | 0.0741 | 0.171 | 0.355 | 0.892 | -0.0139 | 0.691 | -0.608 | 0.144 | 0.151 |
| GTTCACC | -0.108 | 0.00448 | 0.254 | 0.669 | -0.0843 | 1.49 | -0.0898 | -0.0762 | 0.0362 |
| TCTGCCA | 0.0202 | -0.0391 | -0.181 | -0.786 | 0.0158 | -0.684 | -0.0806 | 0.00353 | -0.0578 |
| GAGATGG | 0.0435 | 0.0897 | 0.219 | 0.597 | 0.00617 | 0.499 | 0.12 | 0.0257 | 0.0637 |
| TTCGTAC | -0.033 | -0.0564 | -0.00278 | -0.663 | -0.0527 | -0.487 | -0.0778 | 0.0239 | 0.0301 |
